# Source: PubChem BioAssay AID743255 (National Center for Advancing Translational Sciences (NCATS), 2014)
# About 910 (0.23%) of roughly 390,000 compounds were called active. Not shown: some 5% with an inconclusive outcome. Calls follow the shape of the dose curve; as a rule, active = well fitted inhibition curve with a large enough effect; inconclusive = small, poorly fitted or top-dose-only effect; inactive = no such curve, though single readings can be large or run the other way. The entries are a selection whose mix differs from that of the whole data set.
# Molecular target: Ubiquitin carboxyl-terminal hydrolase 1 (Homo sapiens) (UniProt O94782)
# Chain of UniProt O94782 (O94782 whole entry, looked up): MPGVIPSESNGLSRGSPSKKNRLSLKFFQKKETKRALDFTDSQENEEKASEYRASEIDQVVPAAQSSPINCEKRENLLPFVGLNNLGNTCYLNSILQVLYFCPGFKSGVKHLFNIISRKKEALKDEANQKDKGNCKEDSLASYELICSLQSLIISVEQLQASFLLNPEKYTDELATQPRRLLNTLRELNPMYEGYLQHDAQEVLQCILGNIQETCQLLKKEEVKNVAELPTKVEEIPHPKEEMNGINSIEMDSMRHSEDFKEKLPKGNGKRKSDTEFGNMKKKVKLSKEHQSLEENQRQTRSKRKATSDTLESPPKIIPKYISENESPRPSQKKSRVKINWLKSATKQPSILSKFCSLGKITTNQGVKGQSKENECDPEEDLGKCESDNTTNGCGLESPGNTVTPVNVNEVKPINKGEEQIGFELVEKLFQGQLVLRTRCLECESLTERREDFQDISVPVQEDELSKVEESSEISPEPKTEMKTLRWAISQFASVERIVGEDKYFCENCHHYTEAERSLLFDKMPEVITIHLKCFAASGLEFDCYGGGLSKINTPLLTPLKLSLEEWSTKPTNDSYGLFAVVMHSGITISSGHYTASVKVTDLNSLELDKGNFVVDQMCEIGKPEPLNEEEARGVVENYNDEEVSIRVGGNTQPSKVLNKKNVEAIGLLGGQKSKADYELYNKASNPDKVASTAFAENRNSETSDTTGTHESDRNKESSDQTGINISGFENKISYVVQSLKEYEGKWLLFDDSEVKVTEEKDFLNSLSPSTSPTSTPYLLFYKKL
# Assay: Inhibitors of USP1/UAF1: Primary Screen; also: nearly all actives have a fitted effect of over 60% in size
# Conditions: recombinant USP1/UAF1, Ub-Rhodamine cleavage fluorescence; activity change, negative = inhibition: at 57.1 µM (top of the series)
# How it was run: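 USP1/UAF1 complex (1 nM) preincubated 15 min at room temperature with compound, then Ub-Rho substrate (150 nM final) added. Kinetic fluorescence at 480/540 nm over 6 reads at 60 s intervals; 50 mM HEPES pH 7.8, 0.5 mM EDTA, 0.1 mg/ml BSA, 1 mM TCEP, 0.01% Tween-20.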
# % is scaled to controls: 0 for no effect and ±100 for the full control effect; potency is read from the fitted curve at half-maximal effect.
SMILES,"activity change, negative = inhibition",Potency
O=C(CSCc1ccc(F)cc1)NCc1ccc(F)cc1,inactive: -7.47%,–
Cc1cc(NC(=O)/C(C#N)=C/c2ccc(-c3ccc(SC(F)F)cc3)o2)n(-c2ccccc2)n1,inactive: -24.4%,–
C=CCC[C@@H](Cc1ccc(F)cc1)C(=O)OC[C@H](Cc1c[nH]c2ccccc12)NC(=O)[C@@H](CC=C)CC(=O)NCCO,inactive: -24.1%,–
COc1ccc(N2CCN(C(=O)C3CCCN(S(=O)(=O)c4ccc5c(c4)oc(=O)n5C)C3)CC2)cc1 (stereo not drawn),inactive: -9.55%,–
CSc1ccc(CCNC(=O)Cn2ncc3c([nH]c4ccccc43)c2=O)cc1,inactive: -19.4%,–
Nc1nnc2c(n1)CCCC2,–,active: 15.8 µM
C[C@@H]1CN([C@@H](C)CO)C(=O)CCCn2nncc2CO[C@H]1CN(C)S(=O)(=O)c1ccccc1C#N,inactive: -23.1%,–
CC(C)(C)OC(=O)C[C@@H]1C/C=C\C[C@H](CC(=O)N[C@H](CO)Cc2ccccc2)C(=O)N[C@H](C(C)(C)C)COC1=O,inactive: -26.6%,–
COc1ccc(NC(=O)CC2C(=O)N(c3cccc(C)c3)C(=O)N2C2CCCCC2)cc1 (stereo not drawn),inactive: -19.2%,–
O=C(Cc1ccccc1)Nn1c(O)c(/C=C2\C=Nc3ccccc32)sc1=S,–,active: 31.6 µM
COC(CNC(=O)c1ccc2c3c(onc13)-c1ccccc1C2=O)OC,–,active: 17.8 µM
CC(C)(C)OC(=O)C[C@H]1C/C=C\C[C@@H](CC(=O)N[C@@H](CO)Cc2ccccc2)C(=O)N2CCC[C@@H]2COC1=O,inactive: -26.2%,–
C[C@@H]1COC(=O)[C@H](NC(=O)OCC2c3ccccc3-c3ccccc32)C/C=C\C[C@@H](CC(=O)N[C@H](CO)Cc2ccccc2)C(=O)N1,inactive: -26.3%,–
CCOC(=O)C1CCCN(S(=O)(=O)c2ccc(F)c(C(=O)Nc3ccc(F)c(F)c3)c2)C1 (stereo not drawn),inactive: -19.1%,–
Cc1cccc2nc(-c3ccco3)c(Nc3ccc4c(c3)OCO4)n12,inactive: -21.6%,–
C=CCNCc1ccc(C(=O)NCCCCCCC)cc1[N+](=O)[O-],inactive: 27.7%,–
CC(C)(C)c1ccc(NC(=O)C2CCCN(c3cnccn3)C2)cc1 (stereo not drawn),inactive: -12.5%,–
CC(C)(C)OC(=O)C[C@H]1C/C=C\C[C@H](CC(=O)N[C@H](CO)Cc2ccccc2)C(=O)N2CCC[C@H]2COC1=O,inactive: -8.28%,–
COc1ccc(-n2c(O)c(/C=N/NS(=O)(=O)c3ccc(C)c([N+](=O)[O-])c3)c3ccccc3c2=O)cc1OC,–,active: 25.1 µM
NC(=O)c1ccc(N=C2C(=O)Nc3ccc([N+](=O)[O-])cc32)cc1,–,active: 14.1 µM
COc1ccc(NS(=O)(=O)c2cccc(C(=O)N/N=C(/C)c3ccc(-n4ccnc4)cc3)c2)cc1,inactive: -21.2%,–
CCOC(=O)c1ccc(NS(=O)(=O)c2ccc3oc(=O)[nH]c3c2)cc1,inactive: -20.4%,–
C[C@H](CO)N1C[C@H](C)[C@@H](CN(C)C(=O)CN2CCOCC2)Oc2cc(Br)ccc2S1(=O)=O,inactive: -31.1%,–
CCN(Cc1ccccc1)C(=O)c1nn(-c2ccc(OC)cc2)c(=O)c2c1c1ccccc1n2C,inactive: -20.9%,–
Cc1cc(C)c(S(=O)(=O)/N=C2/C=C(SCC(=O)O)C(=O)c3ccccc32)cc1C,–,active: 25.1 µM
Cc1cccc(NC(=O)c2ccc(F)c(S(=O)(=O)N3CCC4(CC3)OCCO4)c2)c1,inactive: -23.9%,–
CCn1cc(C(=O)NCCCN2CCCC(C)C2)c(=O)c2cc(S(=O)(=O)N(C)C3CCCCC3)ccc21 (stereo not drawn),inactive: -8.58%,–

SMILES,"activity change, negative = inhibition",Potency
CC(=O)NS(=O)(=O)c1ccc(N)cc1,inactive: -28.6%,–
Cc1c(C(=O)Nc2ccc(F)c(F)c2)oc2ccc(S(=O)(=O)N3CCCCC3)cc12,inactive: -2.9%,–
COc1ccc(-c2ccc3c(=O)cc(-c4ccsc4)oc3c2)cn1,inactive: 32.8%,–
CN(C)c1ccc(/C=C(\NC(=O)c2ccccc2)C(=O)NCCCn2ccnc2)cc1,inactive: -18.4%,–
COCCCNC(=O)CN1C(=O)COc2ccc(S(=O)(=O)N3CCCCCC3)cc21,inactive: -20.8%,–
O=C(N/C(=C/c1cccc(Br)c1)C(=O)N1CCOCC1)c1ccco1,inactive: -7.24%,–
CN(C)c1ccc(/C=C(\C#N)C(=O)c2ccccc2)cc1,–,active: 14.1 µM
COc1cccc2c1C(=O)c1c(O)c3c(c(O)c1C2=O)C[C@@](O)(C(C)=O)C[C@@H]3O[C@H]1C[C@H](N)[C@H](O)[C@H](C)O1,–,active: 5.62 µM
CCn1c(C(=O)N2CCCC(C(=O)N3CCN(c4ccccc4)CC3)C2)cc2sccc21 (stereo not drawn),inactive: 405%,–
O=C(O)C1=C[C@@H](C2CC2)C[C@@H](OCCCCO)O1,inactive: -19.6%,–
C=CCC[C@H](Cc1ccc(F)cc1)C(=O)OC[C@@H](Cc1c[nH]c2ccccc12)NC(=O)[C@H](CC=C)CC(=O)N(CCO)Cc1ccccc1,inactive: -20.7%,–
CCn1cc(C(=O)N2CCN(c3ccc(OC)cc3)CC2)c2cc(OC)c(OC)cc2c1=O,inactive: -23.2%,–
CCOC(=O)N1CCN(S(=O)(=O)c2ccc(F)cc2)CC1,inactive: -4.83%,–
C[C@@H]1CN([C@H](C)CO)C(=O)c2cc(Br)cnc2O[C@H]1CN(C)C(=O)Nc1ccc2c(c1)OCO2,inactive: -16.6%,–
CC1=C/C(=C(/c2cc(C)c(O)c(Br)c2)c2ccccc2S(=O)(=O)O)C=C(Br)C1=O,inactive: -21.6%,–
CCCCN1CC(CO)Oc2cccc(F)c2S1(=O)=O (stereo not drawn),inactive: -25.1%,–
O=C(COc1ccccc1)Nc1nnc(S(=O)(=O)N2CCCCCC2)s1,inactive: -1.64%,–
C[C@@H]1CN([C@H](C)CO)C(=O)CCCn2nncc2CO[C@@H]1CN(C)C(=O)NC1CCCCC1,inactive: -15.2%,–
CCc1cccc2cc3c(N)c(C(=O)Nc4ccc(S(=O)(=O)N5CCCC5)cc4)sc3nc12,inactive: 220%,–
C[C@H]1CN(S(=O)(=O)C(C)(C)C)[C@H](CCO)/C1=C\c1ccccc1,inactive: -0.728%,–
C[C@H]1CN([C@@H](C)CO)C(=O)CCCn2cc(nn2)CO[C@@H]1CN(C)S(=O)(=O)c1ccc(Oc2ccccc2)nc1,inactive: -5%,–
Cn1c(O)c(N=Nc2ccc(F)cc2)c2ccccc21,inactive: 40%,–
OCCN(CCO)c1nc(N2CCCCC2)c2nc(N(CCO)CCO)nc(N3CCCCC3)c2n1,–,active: 28.2 µM
CC1=C(C(=O)OC(C)C)C(c2ccc(Cl)cc2)n2c(s/c(=C\c3ccc(OCC(=O)O)cc3)c2=O)=N1 (stereo not drawn),inactive: 34.1%,–
CS(=O)(=O)/C(C#N)=C/c1c(-c2ccccc2)nc2n1CCS2,inactive: 48.7%,–
C[C@@H]1CN([C@@H](C)CO)S(=O)(=O)c2ccc(Br)cc2O[C@H]1CN(C)Cc1ccccc1F,inactive: -7.87%,–
